B1: Flag-tagged full-length SLP76 [not stated] / HA-tagged full-length RAGE [not stated] (parent complex)
chain 1: MALRNVPFRSEVLGWDPDSLADYFKKLNYKDCEKAVKKYHIDGARFLNLTENDIQKFPKLRVPILSKLSQEINKNEERRSIFTRKPQVPRFPEETESHEEDNGGWSSFEEDDYESPNDDQDGEDDGDYESPNEEEEAPVEDDADYEPPPSNDEEALQNSILPAKPFPNSNSMYIDRPPSGKTPQQPPVPPQRPMAALPPPPAGRNHSPLPPPQTNHEEPSRSRNHKTAKLPAPSIDRSTKPPLDRSLAPFDREPFTLGKKPPFSDKPSIPAGRSLGEHLPKIQKPPLPPTTERHERSSPLPGKKPPVPKHGWGPDRRENDEDDVHQRPLPQPALLPMSSNTFPSRSTKPSPMNPLPSSHMPGAFSESNSSFPQSASLPPYFSQGPSNRPPIRAEGRNFPLPLPNKPRPPSPAEEENSLNEEWYVSYITRPEAEAALRKINQDGTFLVRDSSKKTTTNPYVLMVLYKDKVYNIQIRYQKESQVYLLGTGLRGKEDFLSVSDIIDYFRKMPLLLIDGKNRGSRYQCTLTHAAGYP
chain 2: not shown

Variants of: B1
Test: co-immunoprecipitation (IP anti-HA, IB anti-Flag), band quantification; HEK293 cells, AGEs +, n = 3; parent: 1; read off a plot

ratio to parent	Variant
~0.7	chain 1 Y113A
~0.77	chain 1 Y145A
~0.76	chain 1 Y128A
